From PubChem BioAssay AID1508624 (National Center for Advancing Translational Sciences (NCATS), 2021)
Hit rate of the full screen: of about 48,000 compounds, about 120 (0.25%) were called active. About 4% were inconclusive and are not listed. Calls follow the shape of the dose curve; as a rule, active = well fitted activation curve with a large enough effect; inconclusive = small, poorly fitted or top-dose-only effect, or another doubt; inactive = no such curve, though single readings can be large or run the other way. The list shows a part of the results.

experiment: Primary qHTS for Identification of Small Molecule Activators of Huntingtin-Antisense Promoter Activity; settings: HEK293 HTT-AS promoter firefly luciferase reporter, 24 h; series mostly up to 57.5 µM; activity change, positive = activation: at the top concentration; also: nearly all actives have a fitted effect of over 55% in size
How it was run: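 Quantitative HTS used concentration series of up to 57.5 uM final on HEK293 luciferase reporter cells, 24 h at 37 degrees C. Readout was Dual-Glo firefly luminescence.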

SMILES	activity change, positive = activation
COc1ccc(Cn2ccnc2SCC(=O)Nc2ccc3c(c2)OCO3)cc1	inactive: 6.57%
COc1ccc(-c2cc(C(F)(F)F)n3nc(C(=O)Nc4cc(C(F)(F)F)ccc4Cl)cc3n2)cc1OC	inactive: 7.32% [at 11.5 µM, percent change from vehicle, -100% = no light]
Cc1ccc(NC(=O)Cn2c(=O)c(C(F)(F)F)nc3ccccc32)cc1C	inactive: 19.6%
Cc1ccc(C(C(=O)NC2CCCCC2)N(C)Cc2ccccc2)cc1 (stereo unspecified)	inactive: -2.08%
CCOC(=O)c1ccccc1NC(=O)Cn1nnc2sc3c(c2c1=O)CCCC3	inactive: -9.32%
Cc1oc2c(c1C(=O)Nc1ccc(F)c(F)c1)C1=NCCN1C=N2	inactive: 12.4%
CCc1cccc(CC)c1NC(=O)CCS(=O)(=O)c1ccc(Br)s1	inactive: -9.89%
CCOC(=O)c1ccccc1Nc1nc2ccc(C)cc2n2nnnc12	inactive: 2.04%
Cc1cccc(C)c1NC(=O)c1nc(S(C)(=O)=O)ncc1N(Cc1ccc(C(C)(C)C)cc1)Cc1ccco1	inactive: -18.4%
Cn1cc(-c2cc3n(n2)CCC(=O)N3CCCC(=O)NCc2ccc(F)cc2)c2ccccc21	inactive: -29.4%
CCOc1ccc(NC(=O)c2oc3ccccc3c2NC(=O)C2CCCCC2)cc1	inactive: -2.38%
CC1CCN(S(=O)(=O)c2ccc3c(c2)CCN3C(=O)Nc2cccc(Br)c2)CC1	inactive: -5.44%
Cc1ccc(-c2nc3n(n2)C(c2ccccc2Cl)C=C(c2ccc(Cl)cc2)N3)cc1 (stereo unspecified)	inactive: -12.1%
CCOC(=O)c1ccc(CN(Cc2ccc(C)cc2)S(=O)(=O)c2ccc(F)c(C(=O)Nc3ccc(C)c(F)c3)c2)cc1	inactive: 3.9%
CCOCCc1nn2c(=O)cc(COC(=O)c3ccccc3NC(=O)c3ccccc3F)nc2s1	inactive: -10.9%
Cc1ccc(S(=O)(=O)NC2(C(F)(F)F)NC(=O)N(c3ccc(F)cc3)C2=O)cc1 (stereo unspecified)	inactive: -11.4%
CCOc1ccc(C(=O)c2cn(CC(=O)Nc3ccc(OC)cc3)c3cc4c(cc3c2=O)OCO4)cc1	inactive: -13.7%
CCOC(=O)c1c(C)[nH]c(C)c1S(=O)(=O)N1CCCC(C(=O)Nc2ncccc2C)C1 (stereo unspecified)	inactive: 7.5%
CC(C)CCn1c(=O)c2cccnc2n(CC(=O)Nc2ccccc2)c1=O	inactive: -23.4%
CCS(=O)(=O)N1CC(=O)N(c2cccc(Cl)c2)C(C)(C(=O)NC2CCCCCC2)C1 (stereo unspecified)	inactive: -12.3%
Cc1oc(-c2ccc(C(=O)NCCC(C)C)cc2)nc1CS(=O)(=O)c1ccccc1	inactive: -7.79%
N#Cc1c[nH]n2c(NC3CCCC3)c(-c3cccc(Br)c3)nc12	inactive: -10.5%
C=C[C@@H]1CN2CCC1C[C@@H]2C(O)c1ccnc2ccc(OC)cc12 (stereo partly specified)	inactive: -12.1%
CN(C)c1ccc(CN(Cc2ccco2)C(=O)COc2ccc(F)cc2)cc1	inactive: -36.9%

SMILES	activity change, positive = activation
Cc1ccc(NC(=O)N2CC3CCCN3c3ccccc32)cc1C (stereo unspecified)	inactive: -27.4%
COc1ccccc1CCNC(=O)C(=O)NCC(c1ccco1)S(=O)(=O)c1cccs1 (stereo unspecified)	inactive: -16%
COc1ccc(C(=O)Nc2ccc(NC(=O)c3cccs3)cc2)cc1OC	inactive: -13.7%
Cc1cccc(C(=O)NCC(c2cccs2)S(=O)(=O)c2cccs2)c1 (stereo unspecified)	inactive: -6.49%
Cc1nc2sc(C)c(C)n2c(=O)c1S(=O)(=O)N1CCN(c2ccccc2F)CC1	inactive: -12.8%
Cc1cc(C)cc(OCC(=O)Nc2nonc2-c2ccc(Br)cc2)c1	inactive: -23.9%
Cc1ccc2c(Sc3ccc(Cl)cc3)c(C(=O)NCCC(C)C)[nH]c2c1	inactive: 13.6%
Cc1c(C(=O)N(Cc2ccc(N(C)C)cc2)CC2CCCO2)oc2ccccc12 (stereo unspecified)	inactive: -9.7%
CCCSc1ncc(Cl)c(C(=O)Nc2ccc(S(=O)(=O)N3CCCC(C)C3)cc2)n1 (stereo unspecified)	inactive: -29.8%
COc1cc(O)c2c(c1)C1OC1C[C@H](O)[C@H](O)C(=O)C=CC[C@H](C)OC2=O (stereo partly specified)	inactive: -57.6%
CCc1nnc(SCc2nc(-c3ccccc3Cl)oc2C)c2cc3sc(C)cc3n12	inactive: -2.44%
O=C(Nc1nc2c(F)cccc2s1)c1ccc(S(=O)(=O)N2CCOCC2)cc1	inactive: -21.7%
COc1ccc2[nH]cc(CCNC(=O)Nc3ccccc3)c2c1	inactive: -16.2%
COc1ccc(CN(C(=O)c2ccccc2F)C2CCS(=O)(=O)C2)cc1 (stereo unspecified)	inactive: 3.64%
CCOCCCn1c(=N)c(C(=O)NC(C)c2ccccc2)cc2c(=O)n3cc(C)ccc3nc21 (stereo unspecified)	inactive: -7.09%
CCc1cccc(CC)c1NC(=O)CN(CC(=O)O)CC(=O)O	inactive: -9.48%
Cc1ccn2c(NC(=O)c3cccc(Cl)c3)c(-c3ccccc3)nc2c1	inactive: -13%
CCCC(=O)N1CCc2cc(OC)c(OC)cc2C1COc1ccccc1OC (stereo unspecified)	inactive: -21.4%
CCc1ccc(CNc2ncc(-c3cccc(OC)c3)n2C)cc1	inactive: -37.5%
Cc1cccc(C)c1NC(=O)Cn1c(=O)n(Cc2ccc(C(=O)NCc3ccco3)cc2)c(=O)c2sccc21	inactive: -5.2%
CCOC(=O)Cc1cc(C(=O)Nc2ccc(Br)cc2)sc1-c1ccc(C)cc1	inactive: -20.2%
COc1ccc(-c2nc3ccccc3o2)cc1NC(=O)c1cccc2c(Cl)cccc12	inactive: 26.6%
COc1ccc(NC(=O)CC2C(=O)N(c3ccc(OC)cc3)C(=O)N2Cc2ccc(OC)c(OC)c2)cc1 (stereo unspecified)	inactive: -12.7%
CCOc1ccc(N2CC(NC(=O)Cc3cccs3)CC2=O)cc1 (stereo unspecified)	inactive: -16%

SMILES	activity change, positive = activation
CCOc1ccc(CCNC(=O)CCn2c(=O)c3cccn3c3ccc(F)cc32)cc1OCC	inactive: -7.12%
CCOc1ccc(NC(=O)CCc2c(C)nc3c4c(C)cc(C)nc4nn3c2C)cc1	inactive: 5.53%
CN(Cc1ccccc1)c1ccc2cc(S(=O)(=O)N3CCCCC3)ccc2n1	inactive: -6.12%
Cc1ccc(C)c(CSc2cn(CC(=O)N3CCCC3)c3ccccc23)c1	inactive: -0.36%
COc1ccc2cc(-c3nc(-c4ccc(N(C)C)cc4)no3)c(=O)oc2c1	inactive: 1.62%
CCCN(Cc1cccs1)C(=O)Nc1cc(C)cc(C)c1	inactive: -14.3%
Cc1nn(C)c2c1c(-c1ccccc1)cc(=O)n2Cc1ccc(F)cc1Cl	inactive: -16.8%
CCN(CC)C(=O)Cn1c(=O)n(-c2ccc(Cl)cc2)c(=O)c2c3c(sc21)CCCCC3	inactive: -9.14%
COc1ccc(NS(=O)(=O)c2ccc3c(c2)CC(C)N3C(=O)C2CCC2)cc1OC (stereo unspecified)	inactive: -49.7%
Cc1ccc(NS(=O)(=O)c2ccc3nc(-c4ccccc4)[nH]c3c2)cc1Cl	inactive: -36.5%
COc1ccc(Br)cc1CNC(=O)C1CCN(c2nnc(-n3cccc3CNc3ccc(C)cc3)s2)CC1	inactive: -29.2%
CCn1cc(C(=O)N(C)c2cc(C)ccc2C)c2cc(OC)c(OC)cc2c1=O	inactive: -18.4%
O=S(=O)(Nc1nc2n(n1)C(c1ccc(F)cc1)C=C(c1ccc(Cl)cc1)N2)c1ccccc1 (stereo unspecified)	inactive: -9.61%
CSc1nn(CC(=O)Nc2ccc(C)cc2C)c(N)c1S(=O)(=O)c1ccc(Cl)cc1	inactive: -32.4%
COc1cc2c(C(=O)N3CCN(c4ccc(F)cc4)CC3)cn(CC(C)C)c(=O)c2cc1OC	inactive: -15.7%
CCOc1ccccc1NC(=O)C1CCCN(S(=O)(=O)c2cccs2)C1 (stereo unspecified)	inactive: -16.3%
COc1ccc(N2CCN(C(=O)c3ccc4c(c3)CCN4S(=O)(=O)c3ccccc3)CC2)cc1	inactive: -21.6%
Cc1c(C(=O)N(C)Cc2ccccc2)sc2nc(-c3ccc(F)cc3)cn12	inactive: -33.8%
c1ccc(-c2oc3ncnc(NC[C@@H]4CCCO4)c3c2-c2ccccc2)cc1	inactive: -40%
NC(=O)c1ccc(I)c([N+](=O)[O-])c1	inactive: -1.32%
COc1cc(NC(=O)CSc2cc(=O)n(C)c3ccccc23)cc(OC)c1OC	inactive: 0%
CC(NCc1ccc2c(c1)n(C)c(=O)n2C)c1ccccc1 (stereo unspecified)	inactive: 11.6%
Cc1ccc(-c2cn3c(n2)sc2cc(C(=O)NC4CCCCCC4)ccc23)cc1	inactive: 13.4%
COCCCNC(=O)C1CCN(Cc2cc3ccccc3n2Cc2cccc(Cl)c2)CC1	inactive: -26%

SMILES	activity change, positive = activation
Cc1noc2ncnc(NCCc3ccccc3)c12	inactive: -61.1%
CCC12CN3CC(CC)(CN(C1)C3c1c[nH]c3ccccc13)C2=O (stereo unspecified)	inactive: -31.2%
CCOC(=O)c1ccccc1NC(=O)N1CCCn2nc(C)cc21	inactive: -19.3%
Cc1cc(C)cc(N2C(=O)CSC23C(=O)N(CC(=O)NC2CCCCC2)c2ccccc23)c1 (stereo unspecified)	inactive: -33.5%
COc1ccc(C(=O)Nc2cccc(OCc3cc(=O)n4c5c(sc4n3)CCCC5)c2)cc1OC	inactive: 11.8%
CCc1ccc(NC(=O)Cn2c(=O)n(Cc3ccc(C)cc3)c(=O)c3cccnc32)cc1	inactive: -3.6%
CC(=O)N1CCCc2cc(S(=O)(=O)N3CCC(C(=O)N(C)C4CCCCC4)CC3)ccc21	inactive: -24.1%
Cc1ccccc1C(=O)Nc1nnc(S(=O)(=O)N2CCc3ccccc32)s1	inactive: 4.35%
CCCCOc1ccccc1NC(=O)CC1Sc2ccccc2NC1=O (stereo unspecified)	inactive: -33.6%
COc1ccccc1Cc1nc2ccccc2nc1SCC(=O)N1CCCCC1	inactive: -22.5%
COc1ccc(NC(=O)c2sc3nc4n(c(=O)c3c2C)CCC4)c(OC)c1	inactive: -14.9%
CCOC(=O)N1CCN(c2ncc3c(n2)CC(c2ccc(OC)c(OC)c2)CC3=O)CC1 (stereo unspecified)	inactive: -16.2%
Cc1noc(/C=C/c2ccccc2F)c1S(=O)(=O)N1CCC(C(=O)NCc2ccco2)CC1	inactive: -29.5%
COc1ccc(CCNC(=O)CCc2c(C)nc3cc(-c4ccc(Cl)cc4)nn3c2C)c(OC)c1	inactive: -74.3%
N#Cc1c(-c2ccccc2)cc(-c2ccccc2)nc1SCC(O)CS(=O)(=O)Cc1ccccc1 (stereo unspecified)	inactive: -39%
O=C(Cn1cc(SCc2ccc(F)cc2)c2ccccc21)N1CCCCCC1	inactive: -8.1%
O=C(CCc1ccccc1)N(Cc1cccnc1)c1nc2ccc(F)cc2s1	inactive: -3.16%
CCOCCCNC(=O)C1CCCN(c2ncnc3onc(C)c23)C1 (stereo unspecified)	inactive: -30%
CCOc1ccc(NC(=O)c2cnn(-c3ccccc3)c2-n2cccc2)cc1	inactive: -20.2%
CCN(CC)C(=O)CSc1nc2c(c(=O)n(C)c(=O)n2C)n1Cc1ccccc1	inactive: 7.76%
COc1ccc(OC)c(CCNC(=O)c2cnn(-c3ccccc3)c2-n2cccc2)c1	inactive: -38.5%
O=C(CCS(=O)(=O)c1cc(Br)cc2c1N(C(=O)C1CC1)CC2)N1CCN(c2ccccc2)CC1	inactive: -12.7%
CNC(=O)C1CCN(C(=O)N2CC(C)Oc3ccc(Cl)cc32)CC1 (stereo unspecified)	inactive: -1.22%
CCOC(=O)C1CCCN(C(=O)c2ccccc2NC(=O)c2nsc3ccccc23)C1 (stereo unspecified)	inactive: -4.64%
